# Laboratory results as given in ChEMBL document CHEMBL4888484, “Replenishing the malaria drug discovery pipeline: Screening and hit evaluation of the MMV Hit Generation Library 1 (HGL1) against asexual blood stage Plasmodium falciparum ,using a nano luciferase reporter read-out” (2022).
# The campaign covered roughly 150,000 compounds. About 540 (0.36%) showed an effect of 50% or more. This is one part of the list.
# Tested on: Plasmodium falciparum
# Assay: Primary screen in NF54 nanoGlo assay, in single point, at 2uM, 72h; a lower Z score goes with more inhibition
# Assay type: functional, Erythrocyte
# Settings: timepoint 72 hour
Compound,% Inhibition [%],Z score
Cc1nnc([C@@H]2CN(C(=O)c3ccccc3)CCCN2C(=O)c2ccccc2)o1,-10,1.53
COCCc1nc(CN2CCNC(=O)C2)n(CCc2ccccc2)n1,-2,0.36
Cc1nc([C@H]2CCOC(C)(C)C2)n(CC(F)(F)F)n1,-8,1.5
O=C(Nc1nncs1)c1ccc(-c2ccc3c(c2)OCCO3)s1,1,-0.27
O=S(=O)(NCC=Cc1cccnc1)N1CCCCC1,-14,2.17
CCCC(=O)NCCc1ccc([C@H](C)O)s1,-9,1.81
CN(Cc1ccc(CC(=O)O)cc1)CC1(CO)CCCC1,0,-0.04
CCn1nnc2c(N3CC(C(=O)Nc4nc5c(s4)CCCC5)C3)ncnc21,-2,0.25
O=S1(=O)CCC[C@H](NS(=O)(=O)c2ccc(C(F)F)cc2)C1,10,-1.21
O=C(Nc1ccccc1N1CCOCC1)c1cc2c(s1)CCCC2,5,-0.65
CC(C)c1nnc([C@H]2CN(C(=O)C3CCCCC3)CC23CCOCC3)o1,-10,1.97
Cn1cc(S(=O)(=O)N2CCCCCC2)cc1C(=O)Nc1ccc(F)cc1,-11,1.55
Cc1cnc(NC(=O)c2cc3c(s2)CCCCCC3)s1,-1,0.21
CC(=O)Nc1nc(N2CCC(C(=O)N[C@@H](C)c3ccncc3)CC2)sc1C(=O)N1CCCC1,-27,2.61
NCCOc1cccc(CC(=O)N2CCn3cccc3[C@H]2c2cccnc2)c1,-6,0.89
Cc1cc(C(=O)N2CCN(C(=O)C3CC3(C)C(C)C)[C@H](C)C2)n[nH]1 (some centres undefined),-4,0.74
O=C(N[C@H]1CC12CCN(C(=O)c1ccoc1)CC2)c1ccccc1,-14,1.78
Cc1nonc1CNC[C@H](O)c1ccc(Br)cc1,1,-0.25
CCc1onc(C)c1NC(=O)N[C@@H]1CCC[C@@H]1Oc1cnn(C)c1,-8,1.57
CC(C)(C)OC(=O)N[C@@]1(C(=O)O)CCCC1(C)C,12,-1.37
CN(Cc1nc2ccccc2c(=O)[nH]1)C(=O)NCc1noc(C2CCCC2)n1,-22,2.2

Compound,% Inhibition [%],Z score
NC(=O)c1cccc(OC(=O)c2cc3cc(F)ccc3[nH]2)c1,5,-0.86
O=C(O)c1cc2c3c(c1)C1CCCCC1CN3C(c1ccccc1)C1CC=CC21 (centres undefined),3,-0.34
Cc1cc(=O)n(CCN2CC(c3ccccn3)C2)c(=O)[nH]1,-5,0.99
Cc1cccc(C)c1CCNC(=O)N1CCO[C@H](c2nccs2)C1,-2,0.21
O=S(=O)(NCc1cccc2nsnc12)[C@H]1C[C@@H]1c1ccccc1,-1,0.14
O=C(C1CCn2cncc2C1)N1CCC(C2CCCC2)C1 (centres undefined),-4,0.51
COc1ccc(Cc2nc3c4c(ncn3n2)Oc2cc(O)ccc2[C@@H]4c2ccc(OC)cc2)cc1,-2,0.19
Cc1nn(-c2ncccn2)c2c1[C@@H](c1cccc(OCc3cccc(Cl)c3)c1)CC(=O)N2,26,-2.91
Cc1cc(-c2c(C)sc(C)c2S(=O)(=O)Nc2ccc(F)c(Cl)c2)[nH]n1,-6,0.69
CC1=CCN(C(=O)Nc2nccs2)CC1,36,-4.11
CCCCN1CCN([C@@H](C(=O)NC2CCCC2)c2ccccc2)C(=O)C1=O,3,-0.35
CC(C)c1ccoc1C(=O)Nc1cccc2c1OC(C)(C)C[C@@H]2O,2,-0.37
CCCN(Cc1nc(-c2ccc(OC)c3ccccc23)oc1C)C[C@H]1CCCO1,-18,1.97
CCN(CC)C(=O)CC[C@@H]1CNC(=O)[C@@H]2C[C@H](NCc3cccc(Cl)c3)CN12,-17,3.1
CC1CCN(C[C@H]2CCCN(c3nnc(C(F)(F)F)s3)C2)CC1,-5,0.88
O=C(c1coc(CN(CCc2c[nH]c3ccccc23)Cc2ccccc2Cl)n1)N1CCOCC1,-23,2.35
CCC[C@@H]1NC(=O)N(Cc2nsc(N(C)C)n2)C1=O,10,-1.49
COc1ccc(CNC(=O)c2nn3c(c2Br)N[C@@H](c2ccc(Br)o2)C[C@H]3C(F)(F)F)cc1,-9,1.35
C[C@H](Oc1ccccc1)C(=O)N1CCC(=C2CC2)CC1,-6,0.67
COC(=O)c1ccc(NC(=O)c2ccc(N3C(=O)CCS3(=O)=O)cc2Cl)cc1,-2,0.3
CCc1nc(CN(C)Cc2cccnc2OC)no1,3,-0.36

Compound,% Inhibition [%],Z score
O=C(c1ccncn1)N1CC(F)(F)C[C@H]1COc1ccc2c(c1)CCC2,-5,0.86
O=C(c1cc2n(n1)CCN(Cc1ccccc1)C2)N1CCCOCC1,4,-0.56
CCC[C@H](NC(=O)NCc1nn(CC)nc1C)C1CCC1,-6,0.77
c1cc(-c2noc(C3CC3)n2)cc(N2CCOCC2)n1,-13,1.84
CCN1CCCC1CNC(=O)C1c2ccccc2C(=O)N(CCOC)C1c1ccc(F)cc1 (centres undefined),1,-0.14
O=C(Cn1cnc2ccccc2c1=O)N(Cc1ccccc1)[C@H]1CCS(=O)(=O)C1,-4,0.66
O=C(Nc1ccccc1)OC1CCCC(NC(=O)c2c(F)cccc2Cl)C1 (centres undefined),14,-1.56
O=C(Nc1cccc(S(=O)(=O)N2CCOCC2)c1)c1cc(Cl)c2c(c1)OCCCO2,-5,1.07
Cc1cccc(NCC2CCCCC2)c1C(N)=O,-6,0.82
CN(Cc1ccsc1)C(=O)NCCc1cccn1C,0,-0.04
CN(C)CCN(Cc1ccc(OS(=O)(=O)c2ccc(F)cc2)cc1)C(=O)CCC1CCCC1,10,-1.58
CC[C@]1(CO)CCCN(Cc2ccccc2OCC(=O)N2CCCCC2)C1,0,-0.06
O=C(Nc1ccccc1-c1ncco1)N1CCC2(C1)OCCO2,13,-1.52
CC(C)Oc1ccc([C@H]2CC(=O)Nc3c2cnn3Cc2ccco2)cc1,-1,0.07
CN1CCC[C@H](C(=O)N2CCN(c3ccccc3O)CC2)C1,-4,0.62
Nc1nnc(C2CCN(C(=O)OC3CCC3)CC2)o1,20,-2.57
Cc1nn(C)c(C)c1S(=O)(=O)N1CCC=C(c2ccccn2)C1,-8,1.48
Cc1c(Br)cccc1C(=O)NC(C)(C)C(=O)O,1,-0.24
O=C(N[C@@H](N1CCOCC1)C(Cl)(Cl)Cl)c1ccccc1Cl,37,-4.98
CN1C(=O)[C@H](CC(=O)NCCc2cnn(-c3ccccc3)c2)N(C)C1=O,-6,1
Cc1nc2c(NS(=O)(=O)c3c(C)noc3C)cccn2n1,-5,0.58

Compound,% Inhibition [%],Z score
O=C1NCC[C@@H]1CCn1cnc2c1CCCC2,-13,1.16
COc1ccccc1N1CCN(C(=O)Cn2cnc3c([nH]c4ccc(C)cc43)c2=O)CC1,6,-1.13
Cc1ccc(N2CCC(C(=O)N3CC[C@H](CN(C)C)C3)CC2)nc1,-5,0.78
O=C(Nc1ccccc1Cl)C1C2Cc3ccccc3C2ON1c1ccccc1 (centres undefined),-15,1.69
c1cncc(-c2nc(N3CCCC4CCCCC43)c3ccccc3n2)c1 (centres undefined),-5,0.98
Cc1oc(-c2cnn(C)c2)nc1C(=O)N(CC(F)(F)F)C1CCC1,2,-0.27
Cc1cc(C)cc(NC(=O)N2CCCn3nc(-c4cccn4C)cc32)c1,6,-0.75
O=C(NC[C@H]1CCCO1)Nc1snnc1-c1ccccc1,-12,1.62
COc1c(F)ccc(F)c1C(=O)N[C@H]1CC(=O)N(C(C)C)C1=O,-5,0.67
CCN(C)c1ccccc1CNS(=O)(=O)c1sccc1OC,-5,0.46
CC(C)C[C@@]1(C(=O)O)C[C@H](C(=O)NCC(F)F)[C@H](c2cccnc2)N1C,10,-0.95
COc1cc(CNS(=O)(=O)c2cccc(-c3nc(-c4ccc(C)cc4)no3)c2)cc(OC)c1OC,-1,0.16
Cn1c(C(=O)N2CCN(c3cc(N4CCOCC4)ncn3)CC2)cccc1=O,1,-0.16
CCOC(=O)[C@H]1CCCN(C(=O)c2cc(-c3ccccc3OC)n3nc(C(C)(C)C)cc3n2)C1,6,-0.78
CC[C@H](O)CN1CCOc2c(O)cc(-c3ccc(Cl)cn3)cc2C1,-9,1.34
COCCOc1nc(-c2ccc3c(c2)OCO3)n(-c2ccc(NC(=O)c3ccc(OC)cc3)cc2)n1,-17,2.45
CCN(Cc1nc2ccccc2c(=O)[nH]1)C(=O)[C@H](C)c1c(C)noc1C,-1,0.21
CCN(Cc1noc(C)n1)C(=O)c1cc(CC(C)C)nc(N)n1,-13,1.15
CCO[C@H]1COC[C@@H]1NC(=O)c1nc(C)c[nH]1,-7,0.7
